# Reference: PubChem BioAssay (Tox21)
# Inconclusive means that the source gave no clear call. Such entries were picked first, then a sample of the others. For some of these results: Potencies of inconclusive entries are doubtful fits and often do not repeat. Activity calls are given as the source filed them. Unless noted, calls follow the shape of the dose curve; as a rule, active = well fitted curve in the direction sought with a large enough effect in the repeat runs; inconclusive = weak or mixed curves; inactive = no such curve, though single readings can be large; an effect the other way counts as inactive or inconclusive.
# What was measured:
# [1] = qHTS assay for small molecule agonists of the p53 signaling pathway (AID 651631; calls by dose curve; also: nearly all actives have a fitted effect of over 15% in size; also: potency is read from the fitted curve at half-maximal effect; as to activation: % is scaled to controls: 0 for no effect and ±100 for the full control effect); conditions: HCT-116 p53RE-bla reporter, beta-lactamase FRET ratio, 16 h; activation: at 73.3 µM (top of the series) unless noted
# Outline: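 HCT-116 cells carrying a beta-lactamase reporter under p53 response elements were dosed with compound for 16 h at 37 °C. LiveBLAzer B/G FRET substrate was then added for 2 h at room temperature, and fluorescence intensity was read to detect pathway agonism.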
# [2] = qHTS assay for small molecule disruptors of the mitochondrial membrane potential (AID 720635); conditions: HepG2 mitochondrial membrane potential, Mito-MPS dye ratio; ratio activity, negative = MMP loss: at 83.2 µM (top of the series) unless noted; also: potency is read from the fitted curve at half-maximal effect
# Outline: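 HepG2 cells exposed to compound 1 hr at 37C, then Mito-MPS dye 30 min. Ratio read of aggregate (540/590 nm) versus monomer (490/535 nm) fluorescence.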
# [3] = biological target: Glucocorticoid receptor (Homo sapiens) (UniProt P04150); assay: qHTS assay to identify small molecule antagonists of the glucocorticoid receptor (GR) signaling pathway (AID 720692; active = well fitted inhibition curve with a large enough effect in the signal ratio in the repeat runs, not every such curve was filed as active; inconclusive = weak or mixed curves, or effect the other way; inactive = no such curve, though single readings can be large or run the other way; the % refers to the signal ratio; also: potency is read from the fitted curve at half-maximal effect); conditions: GR-bla HeLa, beta-lactamase FRET ratio, dexamethasone-stimulated, 18 h; activity change, negative = inhibition: at 58.5 µM (top of the series) unless noted
# Outline: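 HeLa GR-bla cells; cmpd + dex 5 nM final, 18 h 37 C; LiveBLAzer B/G FRET substrate 2 h RT; fluorescence intensity read. Antagonist mode, qHTS.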
# [4] = qHTS assay to identify small molecule antagonists of the glucocorticoid receptor (GR) signaling pathway - cell viability counter screen (AID 720693); conditions: GR-bla HeLa viability, CellTiter-Glo luminescence, 18 h, with 5 nM dexamethasone present; viability change, negative = cytotoxic: at 58.5 µM (top of the series); also: % is scaled to controls: 0 for no effect and ±100 for the full control effect; nearly all actives have a fitted effect of over 55% in size
# [5] = biological target: Estrogen receptor (Homo sapiens) (UniProt P03372); assay: qHTS assay to identify small molecule antagonists of the estrogen receptor alpha (ER-alpha) signaling pathway (AID 743069; active = well fitted curve in the direction sought with a large enough effect in the signal ratio in the repeat runs, not every such curve was filed as active; inconclusive = weak or mixed curves, or effect the other way; inactive = no such curve, though single readings can be large or run the other way; the % refers to the signal ratio; also: potency is read from the fitted curve at half-maximal effect); conditions: HEK293 ER-alpha-UAS-bla, beta-lactamase ratio, antagonist mode; activity, negative = inhibition: at 69.4 µM (top of the series) unless noted
# Outline: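 Reporter cells (ER-alpha-bla, HEK293 background) are conditioned overnight in stripped-serum medium (2% charcoal-stripped FBS). Compound and 17beta-estradiol exposure runs 18 hr at 37C, 5% CO2.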
# [6] = biological target: Peroxisome proliferator-activated receptor gamma (Homo sapiens) (UniProt P37231); assay: qHTS assay to identify small molecule agonists of the peroxisome proliferator-activated receptor gamma (PPARg) signaling pathway (AID 743094; active = well fitted activation curve with a large enough effect in the signal ratio in the repeat runs, not every such curve was filed as active; inconclusive = weak or mixed curves, or effect the other way; inactive = no such curve, though single readings can be large or run the other way; the % refers to the signal ratio; also: potency is read from the fitted curve at half-maximal effect; as to activation: % is scaled to controls: 0 for no effect and ±100 for the full control effect); conditions: HEK293H PPARg-UAS-bla, beta-lactamase FRET ratio, 17 h; activation: at 57 µM (top of the series) unless noted
# Outline: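 Beta-lactamase FRET fluorescence was the read-out after a 1 h room-temperature substrate step, following 17 h compound treatment at 37C of HEK293H cells expressing a UAS-driven bla reporter responsive to PPARg.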
# [7] = qHTS assay to identify small molecule antagonists of the androgen receptor (AR) signaling pathway - cell viability counter screen (AID 743033; also: nearly all actives have a fitted effect of over 45% in size; also: potency is read from the fitted curve at half-maximal effect); conditions: AR-bla HEK293 viability, CellTiter-Glo luminescence, 16 h; activity change, negative = cytotoxicity: at 58.5 µM (top of the series) unless noted
# [8] = qHTS assay for identifying genotoxic compounds that show differential cytotoxicity against isogenic chicken DT40 cell lines with known DNA damage response pathways - Rev3 mutant cell line (AID 743014); conditions: chicken DT40 Rev3-/- viability, CellTiter-Glo, 40 h; activity, negative = cytotoxicity: at 68.4 µM (top of the series) unless noted; also: nearly all actives have a fitted effect of over 55% in size; also: potency is read from the fitted curve at half-maximal effect; as to activity, negative = cytotoxicity: % is scaled to controls: 0 for no effect and ±100 for the full control effect
# [9] = qHTS assay to identify small molecule antagonists of the thyroid receptor (TR) signaling pathway - cell viability counter screen (AID 743064); conditions: GH3.TRE-Luc viability, CellTiter-Fluor, 24 h; activity change, negative = cytotoxic: at 70.3 µM (top of the series) unless noted; also: potency is read from the fitted curve at half-maximal effect; nearly all actives have a fitted effect of over 50% in size
# Outline: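 GH3.TRE-Luc rat pituitary cells dosed after 4 hr plating, co-stimulated with T3 at 1 nM final, incubated 23.5 h at 37 C. Viability measured in the same wells by CellTiter-Fluor fluorescence after 30 min further at 37 C.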
# [10] = qHTS assay to identify small molecule antagonists of the estrogen receptor alpha (ER-alpha) signaling pathway using the BG1 cell line - cell viability counter screen (AID 743081); conditions: BG1Luc4E2 viability, CellTiter-Fluor, 22 h; activity change, negative = cytotoxicity: at 70.3 µM (top of the series) unless noted;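 also: compound given together with 17beta-estradiol as the ER stimulus; potency is read from the fitted curve at half-maximal effect; nearly all actives have a fitted effect of over 45% in size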
# [11] = qHTS assay to identify aromatase inhibitors - cell viability counter screen (AID 743084); conditions: MCF-7 aro ERE viability, CellTiter-Fluor, 24 h; activity change, negative = cytotoxicity: at 70.3 µM (top of the series) unless noted;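 also: cells stimulated with testosterone during compound exposure; % is scaled to controls: 0 for no effect and ±100 for the full control effect; nearly all actives have a fitted effect of over 55% in size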
# [12] = qHTS assay for identifying genotoxic compounds that show differential cytotoxicity against isogenic chicken DT40 cell lines with known DNA damage response pathways - wild type cell line (AID 743012); conditions: DT40 wild type chicken cells viability, CellTiter-Glo, 40 h; activity change, negative = cytotoxicity: at 68.4 µM (top of the series) unless noted; also: potency is read from the fitted curve at half-maximal effect; nearly all actives have a fitted effect of over 60% in size
# Outline: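 Wild type DT40, 300 cells/well, ~0.5 h settle at 37 C/5% CO2; compounds in DMSO added by pintool; 40 h at 37 C/5% CO2; CellTiter-Glo, 30 min RT; luminescence.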
# [13] = qHTS assay to identify small molecule antagonists of the androgen receptor (AR) signaling pathway using the MDA cell line - cell viability counter screen (AID 743041; also: potency is read from the fitted curve at half-maximal effect; nearly all actives have a fitted effect of over 45% in size); conditions: MDA-kb2 viability, CellTiter-Fluor, 16 h, cells co-treated with R1881 androgen agonist; viability change, negative = cytotoxic: at 70.3 µM (top of the series)
# Outline: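 Same-well cytotoxicity was assessed by CellTiter-Fluor in MDA-kb2 AR-luc cells after 16 h of compound treatment under R1881 agonism.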
# [14] = biological target: Estrogen receptor (Homo sapiens) (UniProt P03372); assay: qHTS assay to identify small molecule agonists of the estrogen receptor alpha (ER-alpha) signaling pathway using the BG1 cell line (AID 743079); conditions: BG1Luc4E2 cells, ERE-luciferase agonist, 22 h; activation: at 70.3 µM (top of the series) unless noted; also: % is scaled to controls: 0 for no effect and ±100 for the full control effect; nearly all actives have a fitted effect of over 20% in size
# [15] = biological target: Glucocorticoid receptor (Homo sapiens) (UniProt P04150); assay: qHTS assay to identify small molecule agonists of the glucocorticoid receptor (GR) signaling pathway (AID 720691; active = well fitted activation curve with a large enough effect in the signal ratio in the repeat runs, not every such curve was filed as active; inconclusive = weak or mixed curves, or effect the other way; inactive = no such curve, though single readings can be large or run the other way; the % refers to the signal ratio; also: potency is read from the fitted curve at half-maximal effect); conditions: GR-bla HeLa, beta-lactamase reporter ratio, 18 h; activation: at 62.4 µM (top of the series) unless noted
# Outline: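 Fluorescence intensity from LiveBLAzer B/G FRET substrate (2 h, room temperature) reports beta-lactamase expression driven by the glucocorticoid response element in GR-bla HeLa cells after 18 h compound exposure at 37 C.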
# [16] = system: thyroid hormone receptor (rat, GH3 cells); assay: qHTS assay to identify small molecule agonists of the thyroid receptor (TR) signaling pathway (AID 743066; calls by dose curve; also: % is scaled to controls: 0 for no effect and ±100 for the full control effect); conditions: GH3.TRE-Luc cells, TR agonist luciferase, 24 h; activation: at 83.9 µM (top of the series) unless noted
# [17] = qHTS assay to identify small molecule antagonists of the estrogen receptor alpha (ER-alpha) signaling pathway - cell viability counter screen (AID 743074; calls by dose curve;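 also: HEK293 cells carrying ER-alpha-UAS-bla reporter stimulated with 17beta-estradiol; potency is read from the fitted curve at half-maximal effect; nearly all actives have a fitted effect of over 45% in size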)
# [18] = qHTS assay to identify small molecule antagonists of the estrogen receptor alpha (ER-alpha) signaling pathway using the BG1 cell line (AID 743080; calls by dose curve; also: % is scaled to controls: 0 for no effect and ±100 for the full control effect; nearly all actives have a fitted effect of over 25% in size); conditions: BG1Luc4E2 ERE-luciferase antagonist mode, luminescence; activity change, negative = inhibition: at 70.3 µM (top of the series) unless noted
# Outline: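 Antagonist mode: compounds in DMSO were pinned onto BG1-Luc-4E2 cells alongside 17beta-estradiol agonist, incubated 21.5 h, and ERE-driven luciferase measured with ONE-Glo. Cytotoxicity was multiplexed using CellTiter-Fluor fluorescence.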
# Tags tell the direction and shape of the fitted curve or compound fluorescence and quenching.
# Sequence of UniProt P04150 (P04150 whole entry, looked up): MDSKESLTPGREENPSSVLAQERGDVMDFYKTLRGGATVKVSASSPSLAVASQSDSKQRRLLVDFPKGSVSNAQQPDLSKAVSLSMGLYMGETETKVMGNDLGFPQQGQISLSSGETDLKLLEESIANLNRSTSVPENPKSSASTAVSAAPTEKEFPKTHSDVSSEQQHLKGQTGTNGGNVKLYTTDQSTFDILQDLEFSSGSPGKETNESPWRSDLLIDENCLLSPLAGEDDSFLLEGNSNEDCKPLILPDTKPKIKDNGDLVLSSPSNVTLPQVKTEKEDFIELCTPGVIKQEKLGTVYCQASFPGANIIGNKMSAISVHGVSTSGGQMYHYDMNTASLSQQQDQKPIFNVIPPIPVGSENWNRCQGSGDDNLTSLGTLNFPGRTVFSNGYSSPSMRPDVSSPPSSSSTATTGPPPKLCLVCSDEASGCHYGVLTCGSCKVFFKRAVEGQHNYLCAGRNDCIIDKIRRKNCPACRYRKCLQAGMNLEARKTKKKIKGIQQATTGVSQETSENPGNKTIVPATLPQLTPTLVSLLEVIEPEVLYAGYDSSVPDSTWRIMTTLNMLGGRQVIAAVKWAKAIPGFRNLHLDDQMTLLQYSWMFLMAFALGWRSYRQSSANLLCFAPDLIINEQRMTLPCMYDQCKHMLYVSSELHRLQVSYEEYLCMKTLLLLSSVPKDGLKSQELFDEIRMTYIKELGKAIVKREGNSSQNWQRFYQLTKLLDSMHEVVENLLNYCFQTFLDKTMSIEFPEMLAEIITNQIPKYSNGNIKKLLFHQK
# Sequence of UniProt P03372 (P03372 whole entry, looked up): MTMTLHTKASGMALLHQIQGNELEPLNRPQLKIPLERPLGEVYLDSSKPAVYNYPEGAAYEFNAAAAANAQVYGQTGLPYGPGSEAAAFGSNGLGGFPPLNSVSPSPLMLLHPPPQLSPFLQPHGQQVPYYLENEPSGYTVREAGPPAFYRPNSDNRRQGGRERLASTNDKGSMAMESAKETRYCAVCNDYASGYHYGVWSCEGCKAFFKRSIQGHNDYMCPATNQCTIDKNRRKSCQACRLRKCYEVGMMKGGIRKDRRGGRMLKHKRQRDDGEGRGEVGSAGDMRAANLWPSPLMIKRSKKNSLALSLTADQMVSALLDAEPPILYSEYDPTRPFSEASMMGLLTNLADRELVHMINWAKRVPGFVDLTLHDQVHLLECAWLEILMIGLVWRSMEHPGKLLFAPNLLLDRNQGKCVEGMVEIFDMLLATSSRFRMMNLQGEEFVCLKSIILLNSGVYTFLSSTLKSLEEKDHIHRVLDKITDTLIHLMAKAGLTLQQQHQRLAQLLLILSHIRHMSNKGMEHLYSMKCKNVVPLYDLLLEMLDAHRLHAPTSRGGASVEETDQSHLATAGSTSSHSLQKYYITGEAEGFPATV
# Sequence of UniProt P37231 (P37231 whole entry, looked up): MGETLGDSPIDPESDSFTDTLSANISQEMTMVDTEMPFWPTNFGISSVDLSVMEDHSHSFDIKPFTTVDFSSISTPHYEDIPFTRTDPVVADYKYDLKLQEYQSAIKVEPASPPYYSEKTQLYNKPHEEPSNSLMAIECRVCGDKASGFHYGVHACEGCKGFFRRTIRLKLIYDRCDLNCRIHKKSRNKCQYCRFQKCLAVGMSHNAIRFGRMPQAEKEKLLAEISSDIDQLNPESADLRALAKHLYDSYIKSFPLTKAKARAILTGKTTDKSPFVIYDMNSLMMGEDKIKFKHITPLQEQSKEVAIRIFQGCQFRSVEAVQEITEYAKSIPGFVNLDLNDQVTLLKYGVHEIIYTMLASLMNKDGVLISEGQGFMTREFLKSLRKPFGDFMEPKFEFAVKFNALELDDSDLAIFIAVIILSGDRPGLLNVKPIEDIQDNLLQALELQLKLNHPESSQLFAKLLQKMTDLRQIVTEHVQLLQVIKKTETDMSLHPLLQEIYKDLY
compound,measurement,setting,value
CCCCC(F)(F)[C@@]1(O)CC[C@H]2[C@@H](CC(=O)[C@@H]2CCCCCCC(=O)O)O1,Potency,[1],"inconclusive: 0.668 µM [activator, single point]"
same,Potency,[2],"inconclusive: 7.5 µM [activator, full curve]"
same,Potency,[3],"inconclusive: 10.7 µM [activator, partial curve, poor fit]"
same,Potency,[4],inactive
same,Potency,[5],"inconclusive: 0.477 µM [activator, full curve]"
same,Potency,[6],"inconclusive: 21.3 µM [rising, partial curve, poor fit]"
CC12CCC(C1)C(C)(C)C2=O (centres undefined),Potency,[1],inactive
same,Potency,[7],"inconclusive: 0.003 µM [cytotoxic, full curve, poor fit]"
same,Potency,[6],inactive
NCCCC[C@H](NC(=O)[C@@H]1CCCN1C(=O)[C@@H]1CSSC[C@H](NC(=O)CNC(=O)CNC(=O)CN)C(=O)N[C@@H](Cc2ccc(O)cc2)C(=O)N[C@@H](Cc2ccccc2)C(=O)N[C@@H](CCC(N)=O)C(=O)N[C@@H](CC(N)=O)C(=O)N1)C(=O)NCC(N)=O,Potency,[1],inactive
same,Potency,[8],inactive
same,Potency,[7],inactive
same,Potency,[9],"inconclusive: 0.944 µM [rising, full curve, poor fit]"
same,Potency,[10],"inconclusive: 1.5 µM [rising, partial curve, poor fit]"
same,Potency,[11],inactive
CC(Oc1ccccc1)C(=O)N[C@@H]1C(=O)N2[C@@H]1SC(C)(C)[C@@H]2C(=O)O (some centres undefined),Potency,[1],"inconclusive: 10.1 µM [activator, partial curve, poor fit]"
same,Potency,[2],inactive
same,"activity change, negative = inhibition",[3],inconclusive: 33.3% [at 27 µM]
same,Potency,[12],"inconclusive: 12.7 µM [rising, partial curve, poor fit]"
same,Potency,[8],"inconclusive: 4.52 µM [rising, partial curve, poor fit]"
same,Potency,[7],"inconclusive: 0.0574 µM [cytotoxic, full curve, poor fit]"
CC[C@H]1OC(=O)[C@H](C)[C@@H](O[C@H]2C[C@@](C)(OC)[C@@H](O)[C@H](C)O2)[C@H](C)[C@@H](O[C@@H]2O[C@H](C)C[C@H](N(C)C)[C@H]2O)[C@](C)(O)C[C@@H](C)[C@@H]2N[C@@H](COCCOC)O[C@@H]([C@H]2C)[C@]1(C)O,Potency,[1],inactive
same,Potency,[2],"inconclusive: 33.5 µM [inhibitor, single point]"
same,Potency,[8],"inconclusive: 26.6 µM [cytotoxic, partial curve, poor fit]"
same,Potency,[13],"inconclusive: 6.68 µM [rising, full curve, poor fit]"
same,Potency,[14],inactive
CCCCCCC(=O)O[C@H]1CC[C@H]2[C@@H]3CCc4cc(O)ccc4[C@H]3CC[C@]12C,Potency,[1],inconclusive: 29.8 µM
same,Potency,[2],active: 11.9 µM
same,Potency,[15],"inconclusive: 30.1 µM [cytotoxic, single point]"
same,Potency,[3],active: 7.56 µM
same,Potency,[9],"inconclusive: 21.1 µM [cytotoxic, partial curve]"
same,activation,[16],inconclusive: -5.91% [phenotype inactive]
same,Potency,[17],"inconclusive: 0.952 µM [cytotoxic, full curve, poor fit]"
same,"activity change, negative = inhibition",[18],inconclusive: -28.5%
